{"source": "PubChem BioAssay AID720542", "about": "(National Center for Advancing Translational Sciences (NCATS), 2013)", "note": "Hit rate of the full screen: of about 360,000 compounds, about 740 (0.21%) were called active. The shares of active, inactive and inconclusive entries below differ from those in the screen. Calls follow the shape of the dose curve; as a rule, active = well fitted inhibition curve with a large enough effect; inconclusive = small, poorly fitted or top-dose-only effect; inactive = no such curve, though single readings can be large or run the other way. Potencies of inconclusive entries are left out as doubtful fits.", "data": [{"tested_on": "Plasmodium falciparum AMA1 (3D7) - RON2 peptide interaction", "assay": "qHTS for Inhibitors of AMA1-RON; Towards Development of Antimalarial Drug Lead: Primary Screen; also: nearly all actives have a fitted effect of over 45% in size; also: potency is read from the fitted curve at half-maximal effect; tags tell the direction and shape of the fitted curve;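 as to activity change, negative = inhibition: 0% = vehicle wells and -100% = peptide control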", "conditions": "AlphaScreen AMA1-biotinylated RON2 peptide binding; activity change, negative = inhibition: at 58.2 µM (top of the series) unless noted", "in_short": "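AMA1 (3D7) with his tag at 25 nM final met compounds first, then biotinylated RON2 peptide at 25 nM; detection used donor plus acceptor beads, 10 µg/mL apiece, read by AlphaScreen after 30 min at room temperature.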", "values": [{"molecule": "CCOC(=O)C1(C)/C(=N/Nc2ccccc2OC)C(=O)C(=O)N1c1ccccc1", "note": "(configuration not stated)", "Potency": "inconclusive [inhibitor, partial curve]"}, {"molecule": "O=[N+]([O-])c1ccccc1/C=N/N1CCN(c2ccc(Cl)cc2)CC1", "Potency": "inconclusive [inhibitor, full curve, poor fit]"}, {"molecule": "C/C=C/c1ccc(OCC(=O)OCc2csc(Nc3ccc(C)cc3)n2)c(OC)c1", "Potency": "inactive"}, {"molecule": "Cc1ccc(O)c(C(=O)c2cnc3c(c2)COc2ccc(C)cc2-3)c1", "Potency": "inconclusive [inhibitor, partial curve]"}, {"molecule": "c1ccc(N2CCN(c3nc(-c4cccs4)nc4ccccc34)CC2)cc1", "Potency": "inconclusive [inhibitor, partial curve]"}, {"molecule": "C#CCOCCOCCOCCNc1nc(N2CCN(C(=O)CCCCCCCCCCNC(=O)[C@H](CCCCN)n3cc(C)nn3)CC2)nc(N2CCN(C(=O)CCCCCCCCCCNC(=O)[C@H](CCCN=C(N)N)n3cc(C[C@@H](C)CC)nn3)CC2)n1", "Potency": "inconclusive [inhibitor, single point]"}, {"molecule": "CCOC(=O)c1[nH]c(C)c(C(=O)N2CCN(c3ccccc3)CC2)c1C", "Potency": "inactive"}, {"molecule": "CN(C)/N=C/c1ccc(Sc2ccccc2[N+](=O)[O-])o1", "Potency": "inconclusive [inhibitor, single point]"}, {"molecule": "CC(C)Oc1ccccc1C1NC(=O)CCC1[N+](=O)[O-]", "note": "(configuration not stated)", "Potency": "inactive"}, {"molecule": "NC(=O)c1ccccc1NS(=O)(=O)c1ccc2c(c1)OCCO2", "Potency": "inactive"}, {"molecule": "CSc1nc(N)nc2c1ncn2Cc1ccccc1", "Potency": "inactive"}, {"molecule": "CC(C)N(C(=O)[C@H]1C[C@H](CC(=O)NC(C)(C)C)C(=O)N2CCc3c([nH]c4cc(-c5ccco5)ccc34)[C@]12C)C(C)C", "Potency": "inconclusive [inhibitor, single point]"}, {"molecule": "CCN(CC)S(=O)(=O)c1cccc(C(=O)N[C@H](C(=O)OCC(=O)Nc2ccccc2)C(C)C)c1", "Potency": "inactive"}, {"molecule": "CC1(C)CC(=O)C=C(NNC(=O)c2ccccc2O)C1", "Potency": "inactive"}, {"molecule": "CC(C)c1cccc(C(C)C)c1OCCCCN1CCCC1", "activity change, negative = inhibition": "inconclusive: -0.535% [inhibitor]"}, {"molecule": "CCC(=O)N1CCCc2cc(S(=O)(=O)N3CCCc4ccccc43)ccc21", "Potency": "inconclusive [inhibitor, single point]"}, {"molecule": "COc1ccc(/C=C/C(=O)C23CC4CC(CC(C4)C2)C3)cc1CN1CCOCC1", "Potency": "inconclusive [inhibitor, single point]"}, {"molecule": "CC(=O)N1CCC(N2CCCC(C(=O)c3cccc(Cl)c3)C2)CC1", "note": "(configuration not stated)", "Potency": "inactive"}, {"molecule": "COC(=O)c1ccc2nc(C)cc(Nc3ccc(N(C)C)cc3)c2c1", "Potency": "inconclusive [inhibitor, partial curve]"}, {"molecule": "O=C(CSc1nc2ccccc2s1)Nc1cc(S(=O)(=O)N2CCOCC2)ccc1O", "Potency": "inactive"}, {"molecule": "COCCN(C(=O)COC(=O)C(c1ccccc1)c1ccccc1)c1c(N)n(Cc2ccccc2)c(=O)[nH]c1=O", "Potency": "inactive"}, {"molecule": "CC(C)(C)NC(=O)C(c1cccs1)N(CC1CCCO1)C(=O)Cn1nnc(-c2cccs2)n1", "note": "(configuration not stated)", "activity change, negative = inhibition": "inconclusive: -2.29% [inhibitor]"}, {"molecule": "Cc1[nH]c(=O)[nH]c(=O)c1CSCC(=O)OCC(=O)c1ccc(Br)cc1", "Potency": "inactive"}, {"molecule": "CN(C)c1cccc2c1C(=O)c1ccccc1C2=O", "Potency": "active: 11.2 µM"}, {"molecule": "c1ccc(Nc2nc3ccccc3[nH]2)nc1", "Potency": "inconclusive [inhibitor, partial curve]"}, {"molecule": "CC(NCC(=O)Nc1cc(S(=O)(=O)N2CCCCCC2)ccc1Cl)c1ccccc1", "note": "(configuration not stated)", "Potency": "inconclusive [inhibitor, partial curve]"}, {"molecule": "C#CCOCCOCCOCCNc1nc(N2CCN(C(=O)CCCCCCCCCCNC(=O)[C@H]([C@@H](C)CC)n3cc(CCCCN=C(N)N)nn3)CC2)nc(N2CCN(C(=O)CCCCCCCCCCNC(=O)[C@H](CCCCN)n3cc(C)nn3)CC2)n1", "Potency": "inconclusive [inhibitor, single point]"}, {"molecule": "COc1ccc(NC(=O)C2(C)Cc3c(-c4ccc(N(C)C)cc4)ccnc3O2)cc1", "note": "(configuration not stated)", "Potency": "inconclusive [inhibitor, partial curve]"}, {"molecule": "Cc1cc(C)c2cccc(N)c2n1", "Potency": "inconclusive [inhibitor, partial curve]"}, {"molecule": "COc1ccc(OC)c(NC(=O)c2ccc(NC(C)=O)cc2)c1", "Potency": "inactive"}, {"molecule": "CCN=c1scc(-c2cccs2)n1/N=C/c1cc(OC)ccc1O", "Potency": "inconclusive [inhibitor, partial curve]"}, {"molecule": "COc1ccc(-c2sc(NC(C)=O)nc2-c2ccccc2)cc1", "Potency": "inconclusive [inhibitor, full curve, poor fit]"}, {"molecule": "Cc1ccsc1/C=N/N1CCN(Cc2ccccc2)CC1", "Potency": "inconclusive [inhibitor, partial curve]"}, {"molecule": "O=C(c1cnccn1)N1CCc2ccccc21", "Potency": "inconclusive [inhibitor, full curve, poor fit]"}, {"molecule": "CSc1nc(C(=O)N2CCc3c([nH]c4ccccc34)C2c2ccccn2)cs1", "note": "(configuration not stated)", "Potency": "inactive"}, {"molecule": "CCCCCOP(=O)(OCCCCC)C1(NS(=O)(=O)c2ccccc2)C=CC(=O)c2ccccc21", "note": "(configuration not stated)", "Potency": "inconclusive [inhibitor, single point]"}, {"molecule": "CC1=C(C(=O)OC(C)C)C(c2ccc(Br)s2)NC(=O)N1C", "note": "(configuration not stated)", "Potency": "inconclusive [inhibitor, single point]"}, {"molecule": "COCCCN(C(=O)c1cc(-c2ccco2)nc2ccccc12)c1c(N)n(Cc2ccccc2)c(=O)[nH]c1=O", "Potency": "inconclusive [inhibitor, full curve, poor fit]"}, {"molecule": "C=C(CO)C1Cc2cc(C(C)=O)ccc2O1", "note": "(configuration not stated)", "Potency": "inconclusive [inhibitor, single point]"}, {"molecule": "Clc1cccc(/C=N/N2CCN(Cc3ccccc3)CC2)c1", "Potency": "inconclusive [inhibitor, partial curve]"}, {"molecule": "CC(=O)NCCNc1nc2cc(-c3cccc(Cl)c3)sc2c(=O)n1C", "Potency": "inactive"}, {"molecule": "COC(=O)c1sccc1NC(=S)N1CCN(c2ccccc2)CC1", "Potency": "inconclusive [inhibitor, partial curve]"}, {"molecule": "CN(C)c1ccc(N=C/C=C2\\N(C)c3ccccc3C2(C)C)cc1", "Potency": "inconclusive [inhibitor, partial curve]"}, {"molecule": "c1cc2c3c(cccc3c1)NC(c1ccc3c(c1)OCO3)N2", "Potency": "inconclusive [inhibitor, partial curve]"}, {"molecule": "COC(=O)c1ccc(NC(=O)COc2coc(CN3CCc4ccccc43)cc2=O)cc1", "Potency": "inconclusive [inhibitor, partial curve, poor fit]"}, {"molecule": "Cc1ccc(NC(=O)CN(C)C(=O)c2cc3c(s2)CCCCC3)cc1", "Potency": "inactive"}, {"molecule": "CCN1CCN(CCOc2ccc(Br)cc2C)CC1", "Potency": "inconclusive [inhibitor, partial curve]"}, {"molecule": "C#CCOCCOCCOCCNc1nc(N2CCN(C(=O)CCCCCCCCCCNC(=O)[C@H]([C@@H](C)CC)n3cc(CCCCN=C(N)N)nn3)CC2)nc(N2CCN(C(=O)CCCCCCCCCCNC(=O)[C@H](CO)n3cc(CCCSC)nn3)CC2)n1", "Potency": "inconclusive [inhibitor, single point]"}, {"molecule": "CCOc1ccccc1OCCCC(=O)Nc1ccc(OC)nc1", "activity change, negative = inhibition": "inconclusive: -10.5% [inhibitor]"}, {"molecule": "COC(=O)C1=C(C)N(Cc2ccccc2)C(=NCC(C)C)N[C@H]1c1ccccc1", "Potency": "inactive"}, {"molecule": "Clc1ccccc1OCCN1CCC(Cc2ccccc2)CC1", "Potency": "inconclusive [inhibitor, single point]"}, {"molecule": "O=C(NCc1ccc2c(c1)OCO2)c1cccs1", "Potency": "inconclusive [inhibitor, single point]"}, {"molecule": "CCCN1C(=O)/C(=C\\C=C2\\N(CC)c3ccccc3C2(C)C)SC1=S", "Potency": "inconclusive [inhibitor, partial curve]"}, {"molecule": "Clc1ccc(OCCN2CCCCC2)cc1Cl", "Potency": "inconclusive [inhibitor, partial curve]"}, {"molecule": "COc1ccc(NC2(c3ccc(Cl)cc3)C(=O)c3ccccc3C2=O)cc1", "Potency": "inconclusive [inhibitor, partial curve]"}, {"molecule": "O=C1/C(=C/c2cccc([N+](=O)[O-])c2)CCc2ccccc21", "Potency": "inconclusive [inhibitor, single point]"}, {"molecule": "CN(C)S(=O)(=O)c1cccc(-c2csc(=Nc3ccccc3)n2CCCN2CCOCC2)c1", "Potency": "inconclusive [inhibitor, single point]"}, {"molecule": "CC(C)(C)n1cnc2cc(NCc3cccs3)ccc21", "Potency": "inactive"}, {"molecule": "COc1cccc(-c2ccc(NC(=O)C3CCCN(Cc4cnn(C(C)C)c4)C3)cc2)c1", "note": "(configuration not stated)", "Potency": "inactive"}, {"molecule": "O=C1c2ccccc2C(Nc2ccc3c(c2)OCCO3)N1Cc1ccc2c(c1)OCO2", "note": "(configuration not stated)", "Potency": "inconclusive [inhibitor, single point]"}, {"molecule": "CC[n+]1ccc(/C=C/c2ccc(N(C)C)cc2)c2ccccc21", "Potency": "active: 28.2 µM"}, {"molecule": "COc1ccc(NC2=NC3(CCCCC3)N=C(N)N2)cc1", "Potency": "inactive"}, {"molecule": "O=c1cc(CO)oc(CN2CCN(Cc3ccccc3)CC2)c1O", "Potency": "inconclusive [inhibitor, full curve]"}, {"molecule": "COc1ccc(-c2cc(C(F)(F)F)c3c(N)c(C(=O)NCCSC)sc3n2)cc1", "Potency": "inactive"}, {"molecule": "CCOc1cc(CNC2CCCC2)c(Cl)cc1OCC(=O)Nc1ccccc1", "Potency": "inactive"}, {"molecule": "Cc1ccc(NCCC(=O)c2cccc([N+](=O)[O-])c2)cc1", "Potency": "inconclusive [inhibitor, single point]"}, {"molecule": "CCc1ccc(CNc2ccc3c(c2)ncn3CC)cc1", "Potency": "inconclusive [inhibitor, partial curve]"}]}]}
